Results from the supplement of paper PMC11417369.
The other results are listed elsewhere or left out.

System: PfHDP1 homeodomain (GST-tagged)
Assay: gcPBM binding intensity (ln(normalized median fluorescence intensity)); higher = stronger DNA binding
Summary of the method: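 GST-tagged P. falciparum DNA-binding domains, expressed in E. coli (about 25 μg on average), were applied for 1 h to an Agilent 4 × 180k array of primer-extended double-stranded 36-bp intergenic genomic probes plus negative controls. The binding buffer was 1× PBS with 1% milk, 0.2 mg/ml BSA, 0.5% salmon testes DNA and 0.03% Triton X-100. Bound protein was detected with Alexa488 anti-GST antibody and scanned at 488 nm. Binding intensity is the highest Masliner-normalised natural-log median intensity across replicate spots of either probe orientation.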

Sequence | gcPBM binding intensity (ln)
TTTCTTTTTAAATAGGTGCATATTTTTATAAATATA | 8.83
TTAAATATAATATTATGTACTAAATATTTTTTTATT [XGTACX_site6121] | 6.32
ATATATTTACATATTACACACAATATTGTACACATA [CACACA_site6564] | 7.11
ATATATTTTTGTAGTGTGCACGTTTATATGGTGAAA | 8.78
TATAAACATATCATATGTACATATATTTTTATAAAA [XGTACX_site8882] | 6.29
TTTAACGTTGAATATACACACATATATATATATATA [CACACA_site3698] | 9.32
AAGAAAAAATAAAAAATAAAAATAAAAAATAAAAAA [TGCATGCA_negctrl_site274] | 6.41
TAAGGATGAATCCTTTGTACATATATATATATATAT [XGTACX_site1242] | 9.34
GTTATACATTTTGATTGTACATAAACCATTTGAGCA [XGTACX_site7283] | 6.54
TGAAAAGAAAACACATGTACAAATATATAAATATAA [XGTACX_site6098] | 6.39
TTTTTTTAAATATACACACACATTTATACATATATA [CACACA_site3400] | 6.78
ACAAAATTTACAAAATGTACAAAATTTACAAAATGT [XGTACX_site6464] | 5.98
GAAGGAAAAACAGAATGTACATAAATAAACGTATAT [XGTACX_site753] | 7.24
TATATCTTACTTTTTGCACACACTAATATTATTGTT [CACACA_site1640] | 10.1
AATACGGCAAACATTAAAAAATATAATAACAATAAA [CACACA_negctrl_site868] | 6.54
AAAAAATATTAATATAGTACTTTATATTTATAAGTA [XGTACX_site6895] | 6.04
GGAAAAAATATATGCACACCCCCCAAAAAAAAAAAA [CACACA_site2222] | 9.67
TTTTTGTTATTTTTAGTGCACATTTAAGGGTGTATT | 9.92
TATATATATATATATATATATATGTATGTGCATTTA [TGCATGCA_negctrl_site53] | 11.2
ATATAAAAATGTAAGGGTACATAATAAATAATCAAA [XGTACX_site5217] | 6.55
ATTTAGAAAAATAAAACACACATATATATGTAAATA [CACACA_site4113] | 6.75
ATCTGTCGACAGGACAGTACACAGTAGCCAGGAAAT [XGTACX_site1994] | 6.79
TATAATATTTACGACAGTACATATATATATATGTAT [XGTACX_site8332] | 6.41

Sequence | gcPBM binding intensity (ln)
AAATAATTTGTTGACACACACACACCCATACATATA [CACACA_site2285] | 6.91
ATGGACTTTTATAGTTGTACATACTATGAGAACTTT [XGTACX_site2800] | 7.08
TAAAATAAATTGTGCACACATATTTATAAATATGAA [CACACA_site2331] | 10.7
TACATATAAAAGTACACACACACACCCATATATATA [CACACA_site941] | 7.07
GTTTATCACAGCCACGCACACATAATATATGTATAT [CACACA_site3669] | 7.18
TATTGCCCGAAACACACACACATATATATATATATA [CACACA_site2491] | 9.44
GATATATAAACATATACACACAAAAACATATTTATA [CACACA_site6734] | 6.63
AATATACAAAATATCACACATATAAAATAATATATA [CACACA_site6067] | 6.18
AAATAATATGTAATCAAATTCACCAAACGAAAAAAA [TGCATGCA_negctrl_site33] | 6.59
AATGGTTCAACGTAGTGTACGTAATAAATAATAAAT [XGTACX_site8668] | 6.5
TGATAATTTCATTTTGCATGTGACAATACAAGATGT [TGCATGCA_site203] | 6.28
ATTATATGTAACACGTGTACCTATTTATGTATGCTT [XGTACX_site5748] | 6.68
TTTGTTTTATCTTATATGCACACGATAAAAAAAAAA [CACACA_site2673] | 9.69
ATCCAAAAAATTAATGCATGCGCAAAAAATAGCTTA [TGCATGCA_site615] | 6.37
TGTCCTTATTTGCACACACACATATAAGAAATTTAA [CACACA_site7485] | 10.5
AAAAAAAAAACATACACACACATATATATATATATG [CACACA_site1586] | 6.95
ACAAAAAAATAAGGTGCACACAAAAAAAAAAAAAAA [CACACA_site8171] | 9.22
ATATAGCATATAATTTGTACACAGGCCATACCTGAA [XGTACX_site533] | 6.39
GAGTTCAGTTTTTGTTGTACTTATTCTTAATATGTC [XGTACX_site6083] | 6.22
TATATGGCATATTTCACACACACATAATGAATATTA [CACACA_site9181] | 6.59
TTTTTTTTTTTTTGATGTACTTATTTAATAAGATAT [XGTACX_site376] | 6.38
AGATGATATACGTAAACACACAAATAAAAAAAATTT [CACACA_site3327] | 6.49
GAAAAAAAAGAAAAAACACACATATGATATATTTAT [CACACA_site1524] | 6.01

Sequence | gcPBM binding intensity (ln)
ATATTTTCTTTTTAAAGTACATATTTGATTACAATA [XGTACX_site8414] | 6.2
TCTTAGATTATTTATTGTACTTATGCTTAAAAAATT [XGTACX_site3639] | 6.17
TAGTTATTTATATACACACACATACAGACAAATAAA [CACACA_site7577] | 7.11
GTCCAATAAGGAAGAGTGCAAAAATTAAATAATATA [GTGCAC_site9751] | 8.67
AAAGAAAAAAAAAACACACACACACGCATTCAATAT [CACACA_site6169] | 6.81
ATATATATTTATATATATATATATATATATATGTAT [GTGCAC_negctrl_site220] | 7.92
CATGTAATATTAAACACACACTCATATAACACAATA [CACACA_site65] | 6.86
TCTATATATAAATATAAATATATATATATAATGTTA [TGCATGCA_negctrl_site92] | 5.95
ATAGAATAATATTGTAGTACTAAAAATATTCATTTT [XGTACX_site6447] | 6.09
TAAAAAACAAAACAGGTGCTATATAATTTTCATTTT | 6.36
TCTTTTTGTTCGTGTACACACATGAAATTTATAAAA [CACACA_site1619] | 7.13
AAGTATATACATATATGTACACATTGTCAGATAGAA [XGTACX_site1236] | 6.49
ATTATAAATTAAAATACACACATATATACATAATAT [CACACA_site7337] | 6.61
TTGTTTCTTAAATTATTTATTTTATATTAAAAAAAA [XGTACX_negctrl_site224] | 6.56
ATTCGTAGTTTTATGAATTAATATAATAAAAATTAA [XGTACX_negctrl_site181] | 5.99
TCGTAGTTACTATGGCAAGAAAATAAACGGTCTTGT [GTGCAC_negctrl_site684] | 6.6
AAGAAAATGAAAAAGTAAAAACATATATTAAATATA [TGCATGCA_negctrl_site123] | 6.45
ATATATATATATATATGTACATATTTTTAATTATAA [XGTACX_site7444] | 9.45
AAACATGATTATTATAGTACAATTATAATTATTATA [XGTACX_site2590] | 6.14
GTCATAAAAACATATACACACTTGAAATATAAAAAT [CACACA_site5315] | 6.63
CAAAGGGAAATTAACACACACATATATATATATATA [CACACA_site2453] | 9.42
GTATACACATATATATGTACTTAATTATTTTATGTC [XGTACX_site6707] | 7.1
TTTCTTTTCTCAGAAATTATTCAAATGAAAAAAAAT [TGCATGCA_negctrl_site44] | 6.07

Sequence | gcPBM binding intensity (ln)
TAATAATATATATGAAGTACAATAACTTTTTGTTTT [XGTACX_site292] | 6.11
TTTATATGTATTAAGTGTACACATATAATCTATCTT [XGTACX_site4922] | 6.71
GTCAAATTTTTGTGCACACATATATAGTTATTATTA [CACACA_site2241] | 11.7
AAAAAAAAAAAAAAAACACACACATACACCCAAAAA [CACACA_site7910] | 6.96
TTACATATGGTTAGTAGTACATATATAAATGTAAAT [XGTACX_site7206] | 6.31
AAAATACACGCATACACACACACACCCACCCATATA [CACACA_site639] | 7.21
TTTATAAAAATATACACACATACAAATATGCATATA [CACACA_site712] | 6.92
GAAAAAAGGAAATAAAGAAAAAAAAAAATGAAATAT [XGTACX_negctrl_site318] | 6.22
GTGTACATAGGTATAGCACACACAAATGTAGGTATT [CACACA_site9339] | 6.52
ATTATAATTATTTTGTTGCACTATTTTTGTAGGCCA [GTGCAC_site9734] | 8.6
GAATACACCACGCACACACACTTGAGAAAAAATAAA [CACACA_site7747] | 7.44
TCTATAAAGTTCCATACATGCGCCATCATTTATATT [TGCATGCA_site195] | 6.98
CTGTTTAAAATATAAACACACATTGTTTGCTTTAGA [CACACA_site1301] | 6.4
ATTTTTTTACTGCAACCATATTTTTCCCTTTTATTC [CACACA_negctrl_site1282] | 7.25
TGTATATATATATAAAGTACATATAATATATATTTG [XGTACX_site5411] | 6.27
AAATAAAATTATAACTGTACGTTGTATGAAATAATG [XGTACX_site5462] | 6.69
TTGCCCATTTCATTAACACACAAATGTTTATATTCT [CACACA_site4569] | 6.94
AATACCCATTTTAGTACACACTTAAAAAATTATTTT [CACACA_site5611] | 6.72
TTAACTCAAGAGTGTACACATATATATATATATATA [CACACA_site4334] | 9.45
GTATAATATGAACACACACACACACGCAAAAAAAAA [CACACA_site7036] | 6.99
